# Source: PubChem BioAssay AID686978 (National Center for Advancing Translational Sciences (NCATS), 2013)
# Several values for one entry are separate records, joined by “and”; a condition that tells them apart may be missing. Equal entries are not always repeated. The whole screen tested about 420,000 compounds, of which about 64,000 (15%) were called active. The inconclusive results got no clear call from the source; some entries with a clear call stand among them for comparison. The call rests on the fitted dose curve; in most records, active means well fitted inhibition curve with a large enough effect; inconclusive means small, poorly fitted or top-dose-only effect; inactive means flat fitted curve, though single readings scatter. Potencies beside an inconclusive call are fits to weak or partial responses and may not hold up.
# Experiment: qHTS for Inhibitors of human tyrosyl-DNA phosphodiesterase 1 (TDP1): qHTS in cells in absence of CPT; further: nearly all actives have a fitted effect of over 55% in size
# Details: DT40 Tdp1-/- hTDP1 cells, no CPT, ATP luminescence, 48 h; activity change, negative = growth inhibition: at 46.2 µM (top of the series)
# How it was run: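 Readout: luminescence from CellTiter-Glo after 30 min in the dark at RT. Cells: DT40 Tdp1-/- with stable hTDP1, 400/well. Exposure: compounds alone, ≥48 hr, 37 °C.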
# On the % scale 0 is the no-effect control and ±100 the full control effect; potency means the concentration at half of the fitted maximal effect; tags describe the fitted curve by direction and shape.
Structure (SMILES),"activity change, negative = growth inhibition",Potency
CC(C)CN(C(=O)Cn1c(=O)cnc2ccccc21)C1CCS(=O)(=O)C1 (configuration not stated),inactive: -1.96%,
CCOc1ccc(NS(=O)(=O)c2ccc(NC(=O)C3CCCO3)cc2)cc1 (configuration not stated),,"inconclusive: 29.1 µM [inhibitor, single point]"
CS(=O)(=O)Nc1cccc(-c2ccc3ncnc(NCCN4CCOCC4)c3c2)c1,,"inconclusive: 23.1 µM [inhibitor, single point]"
Cc1ccsc1CN1CCc2nc(Nc3ccccc3)ncc2C1,,"inconclusive: 18.4 µM [inhibitor, single point]"
N#C/C(=C/c1ccc(O)c(O)c1)c1nc2ccccc2[nH]1,,"inconclusive: 29.1 µM [inhibitor, single point]"
COc1cc2c(cc1OC)C(c1cccs1)N(C(=O)c1ccncc1)CC2 (configuration not stated),,"inconclusive: 29.1 µM [inhibitor, single point]"
O=C(Nc1ccc(NC(=O)c2cccs2)c(Cl)c1)c1cccs1,,"inconclusive: 16.4 µM [inhibitor, partial curve]"
COc1ccccc1CNC(=O)C[C@H]1CC[C@@H]2[C@H](COC[C@H](O)CN2Cc2ccc3c(c2)OCO3)O1,,"inconclusive: 18.4 µM [inhibitor, single point]"
CCOC(=O)c1c(NC(=O)C2CC2)sc(C)c1CC,,"inconclusive: 18.4 µM [inhibitor, single point]"
CC(NC(=O)COC(=O)C1CCN(c2ccc(C(F)(F)F)cn2)CC1)c1ccc(Br)cc1 (configuration not stated),inactive: -11.9%,
O=C(COC(=O)c1ccccc1Cc1ccccc1)Nc1ccc(SC(F)F)cc1,,"inconclusive: 25.9 µM [inhibitor, single point]"
Cc1cc(C)cc(N2C(=O)CC(Sc3ncn[nH]3)C2=O)c1 (configuration not stated),,active: 1.46 µM
COC(=O)[C@]12CCCCC=C1N(Cc1ccc3c(c1)OCO3)C(=O)[C@H](CC(=O)N1CCCCC1)C2,,"inconclusive: 18.4 µM [inhibitor, single point]"
COc1ccc(CNC(=O)CNC(=O)c2sc3ccccc3c2Cl)cc1OC,,"inconclusive: 16.4 µM [inhibitor, single point]"
COc1ccc(C(C(=O)NCc2ccccc2)n2c(=O)c(-c3cc4ccccc4[nH]3)nc3ccccc32)cc1 (configuration not stated),,"inconclusive: 23.1 µM [inhibitor, single point]"
CCCCc1c(C)nc(N)[nH]c1=O,inactive: 10.8%,
CCOc1ccc(NC(=O)CC2SC(=O)N(c3ccccc3)C2=O)cc1 (configuration not stated),,active: 2.91 µM
O=c1c(-c2ccccc2)n[nH]c2ccccc12,,"inconclusive: 29.1 µM [inhibitor, single point]"
CCCCN1CC(O)=C(c2nc(-c3ccc(Cl)cc3)cs2)C1=N,inactive: -16.6%,
Cc1ccc(CC(=O)Nc2ccc([N+](=O)[O-])cc2C)cc1,inactive: -4.13%,
C=CCC1(C#N)C(SC)=NC2=C(C(=O)CC(C)(C)C2)C1c1ccc(Br)cc1 (configuration not stated),,"inconclusive: 23.1 µM [inhibitor, single point]"
O=C(Nc1ccc(N2CCN(C(=O)c3ccccc3)CC2)c(Cl)c1)c1ccc(Br)o1,,active: 20.6 µM
O=c1cc(COc2ccc(Cl)c(Cl)c2)nc2sccn12,,"inconclusive: 2.31 µM [inhibitor, full curve]"

Structure (SMILES),"activity change, negative = growth inhibition",Potency
CCOC(=O)N1CCc2c(sc(NC(=O)CN(CC)CC)c2C#N)C1,,"inconclusive: 1.3 µM [inhibitor, partial curve]"
O=C1c2cccnc2C(=O)N1Cc1ccco1,inactive: -2.09%,
CCOC(=O)C1=CC[C@@H](c2ccccc2)N(S(=O)(=O)c2ccc(C)cc2)[C@H]1c1ccc(CC)cc1,,active: 16.4 µM
O=C1CCC[C@@H]2Cc3[nH]c4c(Cl)ccc(Cl)c4c3[C@@H]3CCN1[C@H]23,,"inconclusive: 29.1 µM [inhibitor, single point]"
CCn1c(=O)c([N+](=O)[O-])c(NCC(O)c2ccccc2)c2ccccc21 (configuration not stated),,"inconclusive: 18.4 µM [inhibitor, single point]"
CSc1ccccc1NC(=O)C1(C)CCN1C(=O)CCC1CCCC1 (configuration not stated),,"inconclusive: 18.4 µM [inhibitor, single point]"
O=C(c1cccs1)N(C(=O)c1cccs1)c1ccc(Br)cn1,,"inconclusive: 20.6 µM [inhibitor, single point]"
CC1C(=O)CCCCCCCCCC2C1(N1CCOCC1)CS2(=O)=O (configuration not stated),,"inconclusive: 1.16 µM [inhibitor, full curve, poor fit]"
Cc1ccc(S(=O)(=O)c2nc(S(C)(=O)=O)sc2N2CCCCC2C)cc1 (configuration not stated),,"inconclusive: 29.1 µM [inhibitor, single point]"
COc1ccc(-c2nc3cnc(N4CCN(C)CC4)nc3n(-c3ccc(OC)cc3)c2=O)cc1,,"inconclusive: 29.1 µM [inhibitor, single point]"
Cc1c2cnn(CC(=O)NCCN3CCOCC3)c(=O)c2c(C)n1Cc1ccccc1F,inactive: 5.63%,
CCc1ccc(S(=O)(=O)c2nnn3c2nc(Nc2cc(OC)ccc2OC)c2sccc23)cc1,inactive: -10.7%,
Cc1ccc(OCCNC(=O)c2cccc(S(=O)(=O)N3CCN(Cc4ccccc4)CC3)c2)cc1,,"inconclusive: 29.1 µM [inhibitor, single point]"
Cc1c(C(=O)N2CCN(Cc3ccc4c(c3)OCO4)CC2)sc2ncnc(N3CCN(c4ccccc4F)CC3)c12,,active: 8.2 µM
COc1ccc(NC(=S)NCCc2c(C)[nH]c3ccc(OC)cc23)cc1,inconclusive: -32.5% [inhibitor],
CCN(CC)c1ncnc2c1ncn2[C@H]1CN(Cc2ccco2)C[C@@H](CO)O1,inactive: -18.2%,
COc1ccc(CC(=O)Nc2sc3c(c2C(=O)Nc2ccccc2)CCCCC3)cc1,,"inconclusive: 23.1 µM [inhibitor, single point]"
COc1ccc(CCNC(=O)c2cc3c(F)cccc3s2)cc1OC,,"inconclusive: 29.1 µM [inhibitor, single point]"
CSCC[C@H](NS(=O)(=O)c1ccc(C)cc1)C(=O)N1CCC(C(=O)N[C@H](C(=O)O)c2ccccc2)CC1,inactive: -0.208%,
COC(=O)c1c(CSc2ccc(C)c(C)c2)noc1C(=O)NCc1ccc(OC)cc1,,"inconclusive: 29.1 µM [inhibitor, single point]"
O=C(CNC(=O)c1cccs1)N=Nc1c(O)[nH]c2ccc(Br)cc12,,"inconclusive: 20.6 µM [inhibitor, single point]"
COC(=O)c1nn(-c2ccc3c(c2)CCN3C(C)=O)cc1O,,"inconclusive: 11.2 µM [inhibitor, single point]"
O=C(NCC1CCCO1)C1CCCN1C(=O)Nc1ccc(Cl)cc1 (configuration not stated),inactive: -3.53%,

Structure (SMILES),"activity change, negative = growth inhibition",Potency
O=C(NCCCNc1ccc(C(F)(F)F)cc1[N+](=O)[O-])c1ccc(Cl)cc1,inactive: -22.3%,
CCN(CC)c1ncnc2sc(C(=O)N3CCN(c4ccccc4)CC3)c(C)c12,,"inconclusive: 29.1 µM [inhibitor, single point]"
COc1cc(C(=O)NCC2CCCCC2)cc(OC)c1OC,,"inconclusive: 29.1 µM [inhibitor, single point]"
Cc1ccc(CCNC(=O)CS(=O)Cc2nc(-c3ccccc3Cl)oc2C)cc1 (configuration not stated),,"inconclusive: 29.1 µM [inhibitor, single point] and inconclusive: 16.4 µM [inhibitor, single point]"
CN(CC(=O)Nc1ccc(Cl)c(Cl)c1)C(=O)CC1OC(=O)c2ccccc21 (configuration not stated),,"inconclusive: 16.4 µM [inhibitor, single point]"
CCOc1ccccc1OC(=O)c1ccco1,inactive: 1.92%,
Cc1cccc2cc(C#N)c(NCCNC(=S)NCCCN3CCOCC3)nc12,,"inconclusive: 7.31 µM [inhibitor, partial curve]"
Cc1c(C(=O)Nc2nc(-c3ccc(F)cc3)ns2)oc2ccc(Cl)cc12,inactive: -4.32%,
NS(=O)(=O)c1ccc(Nc2nc(-c3cccc([N+](=O)[O-])c3)cs2)cc1,,"inconclusive: 29.1 µM [inhibitor, single point]"
CCN(CC)S(=O)(=O)c1cccc(C(=O)OC2CC(C)OC2=O)c1 (configuration not stated),inconclusive: -27.4% [inhibitor],
Cc1ccc(N(C(C)C(=O)N2CCN(Cc3ccccc3)CC2)S(C)(=O)=O)cc1 (configuration not stated),,"inconclusive: 13 µM [inhibitor, partial curve]"
Cc1ccc(S(=O)(=O)CCc2ccncc2)cc1,inactive: -21.9%,
CN1OC[C@@H]2CN(Cc3ccc(Cl)cc3)[C@H](c3ccc(-n4ccnc4)cc3)C[C@@H]21,,"inconclusive: 25.9 µM [inhibitor, single point]"
N#CC1(NC(=O)COC(=O)c2cc([N+](=O)[O-])ccc2N2CCCC2)CCCCC1,,"inconclusive: 11.6 µM [inhibitor, partial curve, poor fit]"
NS(=O)(=O)c1ccc(NC(=S)Nc2ccc(F)c(F)c2)cc1,inactive: -14.5%,
COc1ccc(-c2nnc(SC(C(=O)c3c[nH]c4ccccc34)c3ccccc3)n2N)cc1OC (configuration not stated),,"inconclusive: 18.4 µM [inhibitor, single point]"
COc1ccccc1C(=O)Nc1ccccc1OCc1cc(=O)n2ccccc2n1,,"inconclusive: 29.1 µM [inhibitor, single point]"
Cn1c(=O)cc(OCCCC(=O)NC2CCCC2)c2ccccc21,,"inconclusive: 29.1 µM [inhibitor, single point]"
CCc1ccc(CN2CCCC(C(=O)Nc3ccccc3-c3ccc(OC)cc3)C2)o1 (configuration not stated),,"inconclusive: 18.4 µM [inhibitor, single point]"
COc1ccc(-c2cc3c(=O)n(CC(=O)Nc4cccc(Cl)c4)ncn3n2)cc1,inactive: 19.5%,
CCc1ccccc1NC(=S)NCC1CCN(c2ccc(OC)cc2)C1 (configuration not stated),,active: 20.6 µM
